Some of the results follow.
Assays:
HSkMC = human skeletal muscle cells; test: cytotoxicity call (relative viability < 0.9); conditions: 10 µM
HepG2 = test: cytotoxicity call (relative viability < 0.9); conditions: 10 µM
S. aureus RN4220 = test: growth inhibition call (relative growth <= 0.2); conditions: 50 µM

Structure (SMILES)	cytotoxicity call (HSkMC)	cytotoxicity call (HepG2)	growth inhibition call (S. aureus RN4220)
C[C@@H]1CN([C@H](C)CO)C(=O)c2cc(NC(=O)C3CCCCC3)ccc2O[C@@H](C)CCCCO[C@H]1CN(C)Cc1ccc2c(c1)OCO2	inactive	inactive	inactive
COc1ccc(S(=O)(=O)N(C)C[C@H]2Oc3ccc(NS(=O)(=O)c4ccccc4)cc3C(=O)N([C@@H](C)CO)C[C@H]2C)cc1	inactive	inactive	inactive
C[C@@H]1CN([C@@H](C)CO)C(=O)Cc2cc(NC(=O)Nc3cccc4ccccc34)ccc2O[C@H]1CN(C)Cc1ccc2c(c1)OCO2	inactive	active	inactive
N[C@H]1CCc2nc3ccccc3c(=O)n2[C@@H]1c1ccsc1	inactive	inactive	inactive
O=C(C[C@H]1C[C@@H]2c3cc(NC(=O)C4CCOCC4)ccc3O[C@@H]2[C@H](CO)O1)NCc1ccc(Cl)cc1	inactive	inactive	inactive
O=C(O)CCCCN(CCc1ccccc1OCc1ccc(CCc2ccccc2)cc1)Cc1ccc(C(=O)O)cc1	inactive	inactive	inactive
C[C@@H]1CN([C@@H](C)CO)C(=O)c2cc(NC(=O)Nc3cccc4ccccc34)ccc2O[C@H]1CN(C)S(=O)(=O)c1ccc(F)cc1	inactive	inactive	inactive
N#C[C@@H]1N[C@@H](CO)[C@@H]1c1ccccc1	inactive	inactive	inactive
COc1ccccc1-c1ccc2c(c1)O[C@@H](CN(C)S(=O)(=O)c1ccccc1)[C@H](C)CN([C@@H](C)CO)S2(=O)=O	inactive	inactive	inactive
O=C(O)c1cc(-c2ccc(F)cc2F)ccc1O	inactive	inactive	inactive
C[C@@H]1CCCCO[C@H](CN(C)S(=O)(=O)c2ccccc2)[C@H](C)CN([C@@H](C)CO)C(=O)c2cc(NC(=O)Nc3ccc(F)cc3)ccc2O1	inactive	active	inactive
COc1ccc(NC(=O)Nc2ccc3c(c2)C(=O)N([C@H](C)CO)C[C@H](C)[C@@H](CN(C)S(=O)(=O)c2cccs2)OCCCC[C@@H](C)O3)cc1	inactive	inactive	inactive
C[C@@H]1CN([C@H](C)CO)C(=O)c2cc(NC(=O)C3CCCCC3)ccc2O[C@@H](C)CCCCO[C@H]1CN(C)C(=O)Nc1cccc2ccccc12	inactive	inactive	inactive
Cc1ccc(S[C@]2(C(=O)NCCN3CCOCC3)CC(=O)N(Cc3cc(C(F)(F)F)cc(C(F)(F)F)c3)[C@@H]2c2ccc(CO)cc2)cc1	inactive	inactive	inactive
COC(=O)C[C@H]1CC[C@H]2[C@@H](COC[C@@H](O)CN2S(=O)(=O)c2ccc(F)cc2)O1	inactive	inactive	inactive
O=C(N[C@H]1CC=CC[C@H](CC(=O)N(CCO)Cc2ccccc2)C(=O)NCC(c2ccccc2)OC1=O)OCC1c2ccccc2-c2ccccc21 (some centres undefined)	inactive	inactive	inactive
CO[C@H]1CN(C)C(=O)c2cc(NS(C)(=O)=O)ccc2OC[C@H](C)N(C(=O)C2CCOCC2)C[C@@H]1C	inactive	inactive	inactive
C[C@H](CO)N1C[C@H](C)[C@@H](CN(C)C(=O)Nc2cccc3ccccc23)OCCCC[C@H](C)Oc2ccc(NC(=O)NC3CCCCC3)cc2C1=O	active	inactive	inactive
O=C(C[C@@H]1CC[C@@H]2[C@H](COC[C@H](O)CN2S(=O)(=O)c2ccc(F)cc2)O1)N1CCc2ccccc2C1	inactive	inactive	inactive
CC1(CN)Cc2ccccc2C1	inactive	inactive	inactive
Cc1cc(C(=O)Nc2cccc3c2O[C@@H](CN(C)C(=O)NC(C)C)[C@H](C)CN([C@@H](C)CO)C3=O)n(C)n1	inactive	inactive	inactive
CC(C)C(=O)N1CC[C@H]2CN(CC(=O)N(C)C)S(=O)(=O)[C@@H]2CC1	inactive	inactive	inactive
CCOC(=O)c1cn2cn[nH]c2nc1=O	inactive	inactive	inactive
C[C@H](CO)N1C[C@H](C)[C@H](CN(C)C(=O)Nc2ccc(C(F)(F)F)cc2)Oc2ccc(NS(C)(=O)=O)cc2CC1=O	inactive	inactive	inactive
C[C@@H](O)/C=C\c1cc[n+](C)cc1	inactive	inactive	inactive
C[C@H](CO)N1C[C@H](C)[C@H](CN(C)Cc2ccncc2)Oc2ccc(NS(=O)(=O)c3cccs3)cc2CC1=O	inactive	inactive	inactive
C[C@@H]1CCCCO[C@@H](CN(C)C)[C@@H](C)CN([C@@H](C)CO)C(=O)c2cc(NS(=O)(=O)c3cn(C)cn3)ccc2O1	inactive	inactive	inactive
CCO[C@@H]1OC(C(=O)N2CCN(Cc3ccc4c(c3)OCO4)CC2)=C[C@H](c2ccc3c(c2)OCO3)[C@H]1CCCO	inactive	inactive	inactive
